Source: PubChem BioAssay AID360 (National Center for Advancing Translational Sciences (NCATS), 2006)
About 550 (1.1%) of roughly 48,000 compounds were called active. Inconclusive results (about 4%) are left out. Cut-off read from the data, not from the text of the source: active = potency below about 15 µM; inconclusive = mostly about 16 µM to 33 µM; inactive = weaker than that. The list shows a part of the results.

Biological target: Lysosomal acid glucosylceramidase (Homo sapiens) (UniProt P04062)
Chain of UniProt P04062 (P04062 whole entry, looked up): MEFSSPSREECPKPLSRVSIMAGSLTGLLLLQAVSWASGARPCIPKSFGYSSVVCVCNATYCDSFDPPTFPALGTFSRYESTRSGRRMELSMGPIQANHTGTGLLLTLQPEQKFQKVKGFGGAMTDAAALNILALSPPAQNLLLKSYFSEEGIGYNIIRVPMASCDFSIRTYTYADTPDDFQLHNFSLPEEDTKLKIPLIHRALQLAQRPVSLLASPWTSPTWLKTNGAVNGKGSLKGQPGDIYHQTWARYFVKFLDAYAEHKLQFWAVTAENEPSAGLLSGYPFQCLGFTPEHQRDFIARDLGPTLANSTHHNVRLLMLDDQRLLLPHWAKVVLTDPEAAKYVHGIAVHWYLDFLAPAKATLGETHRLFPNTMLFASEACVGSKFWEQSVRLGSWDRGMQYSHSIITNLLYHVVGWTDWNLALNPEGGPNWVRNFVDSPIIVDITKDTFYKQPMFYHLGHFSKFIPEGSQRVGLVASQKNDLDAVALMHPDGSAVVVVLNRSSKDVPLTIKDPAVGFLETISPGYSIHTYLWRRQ
Assay: Glucocerebrosidase;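 note: the screen sought inhibitors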
Settings: purified enzyme, resorufin glucoside fluorescence (screen aimed at inhibitors), 20 min
Method in brief: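 Compounds titrated against 0.2 nM normal enzyme, 30 uM resorufin beta-D-glucopyranoside substrate, citrate/phosphate buffer with taurocholate and tween-20, pH 5.9. Reaction ran 20 min at room temperature; fluorescence (Ex 548/Em 600) gave AC50.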
Potency is the fitted concentration of half-maximal effect.

Potency, inactive:
COc1ccc(C2C(=O)N(C3CCCCC3)CC(=O)N2CCc2ccccc2)cc1OC (stereo not given) > 76.9 µM
Cc1nnc(SCC(=O)Nc2nccs2)[nH]c1=O > 76.9 µM
CCNC(=O)Nc1cc2nc(C)n(Cc3ccc(Br)cc3)c2nc1C > 76.9 µM
Cc1ccsc1C(=O)OCC(=O)Nc1sccc1C(N)=O > 76.9 µM
CC(C)(C)c1ccc(C(=O)NCCC(=O)NCc2ccco2)cc1 > 76.9 µM
CCOC(=O)CSc1nnc(C)n1N > 76.9 µM
Cc1cc2nc(C)n(CCCN)c2cc1C > 76.9 µM
CCC(=O)Nc1ccc(NC(=O)c2ccco2)c(OC)c1 > 76.9 µM
CCCCCc1c(C)nc(N2CCc3ccccc3C2)[nH]c1=O > 76.9 µM
O=C(CCc1ccc(S(=O)(=O)N2CCOCC2)cc1)NCCCN1CCCC1=O > 76.9 µM
CCCCSc1nnc(CCCCCNC(=O)OC(C)(C)C)o1 > 76.9 µM
Cc1ccc(NC(=O)CSCC(=O)O)c(C)c1 > 76.9 µM
CC1Cc2cc(C(=O)O)ccc2O1 (stereo not given) > 76.9 µM
Cc1ccc(C)c(OCC(O)CN2CCC(C)CC2)c1C (stereo not given) > 76.9 µM
Cc1nn2c(c1-c1ccccc1)NC1=C(C(=O)CCC1)C2c1cccnc1 (stereo not given) > 76.9 µM
COCNc1nc(OCC#N)nc(N(C)C)n1 > 76.9 µM
Cn1c(N)c(C(=O)CSc2ccc3c(c2)OCCO3)c(=O)n(C)c1=O > 76.9 µM
COc1ccc(N2CCN(Cc3cc(=O)oc4ccc(Cl)cc34)CC2)cc1 > 76.9 µM
Cc1c(NS(=O)(=O)c2ccc3[nH]c(=O)[nH]c3c2)c(=O)n(-c2ccccc2)n1C > 76.9 µM
Cc1cc2cc(CN(CCCN3CCOCC3)C(=O)NC3CCCCC3)c(=O)[nH]c2cc1C
CN(C)c1ncc(C(=O)O)cn1 > 76.9 µM
COC(=O)CSc1nnc(-c2ccco2)n1Cc1ccco1 > 76.9 µM
COc1ccc(-c2nnnn2-c2ccccc2OC)cc1 > 76.9 µM
O=C(Nc1ccccc1)c1ccc(S(=O)(=O)N(CCO)CCO)cc1 > 76.9 µM
O=C(CSc1nnc(-c2ccc(Br)cc2)o1)Nc1cccc2ccccc12 > 76.9 µM
Cc1cccc(OCCCC(=O)O)c1 > 76.9 µM
O=C(COc1ccc(S(=O)(=O)N2CCCC2)cc1Cl)NCc1ccco1 > 76.9 µM
CC(C)N(O)C(=O)NC(C)(C)C > 76.9 µM
Cc1ccsc1C(=O)OCC(=O)c1cc(C)n(CC2CCCO2)c1C (stereo not given) > 76.9 µM
CCCCn1c(-c2ccccc2)nnc1-c1ccccc1 > 76.9 µM
Cn1c(=O)[nH]c(=O)c2c1ncn2CCN1CCCCC1 > 76.9 µM
Cn1c(=O)c2c(ncn2Cc2cc(-c3ccccc3)no2)n(C)c1=O > 76.9 µM
N#Cc1ccc(CSc2nnc(-c3ccccn3)n2-c2ccccc2)cc1 > 76.9 µM
CSc1cccc(NS(=O)(=O)c2cccc3nsnc23)c1 > 76.9 µM
CCOC(=O)C(NC(C)=O)(N1CCc2ccccc2C1)C(F)(F)F (stereo not given) > 76.9 µM
O=C(COC(=O)c1ccccn1)Nc1c(Cl)cccc1Cl > 76.9 µM
CCc1nnc(NC(=O)c2cnccn2)s1 > 76.9 µM
O=C(c1ccco1)N1CCN(c2ccc(Cl)c(Cl)c2)CC1 > 76.9 µM
COc1ccc2cc(CN(Cc3ccco3)Cc3nnnn3C3CCCCC3)c(=O)[nH]c2c1 > 76.9 µM
Cc1cccc(NC(=O)c2cc3n(n2)C(C(F)(F)F)CC(c2ccc4c(c2)OCO4)N3)c1 (stereo not given) > 76.9 µM
O=C(NCCCN1CCOCC1)c1cc2c(s1)CCCC2 > 76.9 µM
Cc1ccc(S(=O)(=O)N2CCOCC2)cc1C(=O)N1CCOCC1 > 76.9 µM
CC1CN(C(=O)CSc2nnc(-c3ccncc3)n2-c2ccccc2)CC(C)O1 (stereo not given) > 76.9 µM
O=C(c1cccc(F)c1)n1nnc2ccccc21 > 76.9 µM
COc1ccccc1NC(=O)c1[nH]c(C)c(C(C)=O)c1C > 76.9 µM
COC(=O)C1CCC(C)(C(=O)Nc2ccccc2)C1(C)C (stereo not given) > 76.9 µM
COc1cc(OC)c(C2CC(=O)N3CN(c4ccc(C)cc4)CSC3=C2C#N)cc1OC (stereo not given)
O=C(CCCn1c(=S)[nH]c2ccccc2c1=O)N1CCOCC1 > 76.9 µM
CCOCCCNC(=O)C(c1ccc(C)cc1)N(Cc1ccc2c(c1)OCO2)C(=O)CNC(C)=O (stereo not given) > 76.9 µM
COc1ccc(NC(=O)c2cc3n(n2)C(C(F)(F)F)CC(c2ccc4c(c2)OCO4)N3)cc1OC (stereo not given) > 76.9 µM
CC1(C)NC(=O)N(CC(O)COc2ccc(-c3ccc(C#N)cc3)cc2)C1=O (stereo not given) > 76.9 µM
CC(C)NS(=O)(=O)c1ccc(CCC(=O)NCc2ccco2)cc1 > 76.9 µM
CC(C)C(=O)Nc1nnc(Cc2ccccc2)s1 > 76.9 µM
CCOC(=O)c1c(NC(=O)CSc2nc(C)cc(C)c2C#N)sc(C(C)=O)c1C > 76.9 µM
CCCc1cc(-c2n[nH]c(C)c2-c2ccc(C(=O)OCC)o2)c(O)cc1O
CCOc1ccccc1Oc1coc2cc(O)ccc2c1=O > 76.9 µM
O=C1CCC(=O)N1OCCCOc1ccc(Br)cc1Cl > 76.9 µM
O=C1NCCN1CCNS(=O)(=O)c1ccc2ccccc2c1 > 76.9 µM
Cn1c(C(=O)N2CCN(Cc3ccc4c(c3)OCO4)CC2)cc2sccc21 > 76.9 µM
Cc1cc(=O)n2nc(N3CCC(C(=O)N4CCN(Cc5ccccc5)CC4)CC3)sc2n1 > 76.9 µM
